Measured values published in the supplement of paper PMC12217912.
The other results are listed elsewhere or left out. Sequences were assembled here from the parent chain. Values near 0.05 are background.

B1: TEV protease; numbered along this chain (parent)
chain: MGESLFKGPRDYNPISSSICHLTNESDGHTTSLYGIGFGPFIITNKHLFRRNNGTLVVQSLHGVFKVKDTTTLQQHLVDGRDMIIIRMPKDFPPFPQKLKFREPQREERICLVTTNFQTKSMSSMVSDTSCTFPSGDGIFWKHWIQTKDGQCGSPLVSTRDGFIVGIHSASNFTNTNNYFTSVPKNFMELLTNQEAQQWVSGWRLNADSVLWGGHKVFMVKPEEPFQPVKEATQL

Variants of: B1
Assay: raw area under fraction-flipped curve 0-4 h after induction (AUC4h, not background-subtracted), DNA-recorder readout of cleavage of the substrate (dimensionless); higher = more cleavage of the substrate by the protease variant
Conditions: temperature: 34 °C; time window: 0-4 h after rhamnose induction
Experimental: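 In vivo DNA recorder in E. coli TOP10(DE3) ΔrhaA at 34 °C. Each TEVp single-site mutant (parent TEVp 0) is paired with a single-site variant of the 7-mer TEVs (canonical ENLYFQ|S). The substrate sits between flexible linkers in a Bxb1-sfGFP-TEVs-SsrA fusion, so cleavage stabilises Bxb1 and speeds flipping of a recombination array, read by NGS. The value is the raw area under the fraction-flipped curve over 0-4 h after rhamnose induction (AUC4h), with ≥20 reads per time point. It is not background-subtracted; inactive controls average about 0.047.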
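Note: Bxb1 expression induced with 0.2% (w/v) L-rhamnose at OD600 near 0.5, cultures sampled hourly, flipped fraction per protease–substrate barcode pair counted by paired-end Illumina sequencing.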

Row | Variant | area with substrate ENLYAQS | area with substrate ENLYDQS | area with substrate ENLYEQS | area with substrate ENLYHQS | area with substrate ENLYIQS | area with substrate ENLYMQS | area with substrate ENLYPQS | area with substrate ENLYQQS | area with substrate ENLYRQS | area with substrate ENLYVQS | area with substrate ENLYWQS | area with substrate ENLYYQS | area with substrate ENLYKQS | area with substrate ENLYNQS | area with substrate ENLYSQS | area with substrate ENLYTQS | area with substrate ENLYCQS | area with substrate ENLYGQS | area with substrate ENLYLQS
1 | S201E | 0.0762 | 0.0592 | 0.0674 | 0.0669 | 0.0958 | 0.0665 | 0.1 | 0.0571 | 0.0623 | 0.0996 | 0.077 | 0.0838 |  |  |  |  |  |  | 
2 | W203P | 0.0432 | 0.0568 | 0.0785 | 0.0589 |  | 0.0764 | 0.0611 |  |  | 0.079 |  |  | 0.0682 | 0.062 |  |  |  |  | 
3 | L205Y | 0.0673 | 0.0456 | 0.0775 |  | 0.0734 | 0.0634 |  | 0.0697 | 0.0625 |  | 0.0694 | 0.0705 |  | 0.0574 | 0.0611 | 0.0702 |  |  | 
4 | N206R | 0.06 |  | 0.0539 |  | 0.0956 | 0.0781 |  | 0.0569 | 0.0445 | 0.0724 |  | 0.0429 | 0.0589 | 0.121 | 0.0488 | 0.074 | 0.0885 | 0.062 | 
5 | S209H | 0.0862 |  | 0.0616 | 0.0551 |  |  | 0.0819 |  | 0.0534 | 0.131 | 0.0857 | 0.0666 | 0.0609 | 0.0764 | 0.0819 |  |  | 0.0389 | 
6 | F218I | 0.042 | 0.0755 | 0.0726 | 0.049 | 0.108 | 0.0635 | 0.0714 | 0.191 |  | 0.0913 | 0.0642 | 0.0695 |  | 0.0601 | 0.0695 | 0.0786 |  | 0.0628 | 0.0653
7 | F218V | 0.0673 | 0.0482 | 0.066 |  |  |  | 0.0657 |  | 0.05 | 0.117 |  |  |  | 0.0587 |  |  | 0.0757 | 0.0409 | 
8 | V220S | 0.0836 | 0.0685 | 0.0818 |  |  |  | 0.0525 |  | 0.0739 |  | 0.0978 |  |  | 0.0798 | 0.0679 |  |  | 0.0653 | 
9 | P222L | 0.115 | 0.0651 | 0.0618 | 0.0802 |  |  |  | 0.0477 |  | 0.0938 | 0.0631 | 0.0459 | 0.058 | 0.055 |  |  |  |  | 0.0826
10 | Q227A | 0.0812 |  | 0.0849 |  |  |  |  |  |  |  |  |  |  |  | 0.0727 |  |  | 0.0827 | 
11 | Q227D | 0.0731 | 0.0583 |  |  | 0.165 |  | 0.0688 |  |  |  | 0.106 |  | 0.0621 |  | 0.128 |  |  | 0.0646 | 0.109
12 | V229D | 0.0716 | 0.0725 | 0.0696 |  | 0.133 |  | 0.0848 | 0.067 |  | 0.119 | 0.0601 |  |  | 0.0766 | 0.0047 | 0.0908 |  |  | 
13 | T233W | 0.0709 |  | 0.0584 |  |  |  | 0.0704 |  |  | 0.119 | 0.0858 |  | 0.0746 | 0.0828 |  |  | 0.0943 |  | 0.0747
14 | L235C | 0.0692 | 0.065 |  |  |  | 0.0577 |  |  |  | 0.12 |  |  |  | 0.0691 | 0.0808 |  |  | 0.0562 | 
15 | L235P | 0.0615 |  |  |  |  | 0.0756 | 0.0685 |  |  |  | 0.112 |  |  | 0.0499 | 0.0757 |  |  |  | 
16 | L235T | 0.0917 | 0.0631 | 0.0749 | 0.068 |  |  |  |  |  | 0.094 | 0.079 |  |  |  | 0.0856 | 0.0904 | 0.115 | 0.0601 | 
17 | L5H |  | 0.0691 | 0.0725 | 0.0832 | 0.141 | 0.107 |  |  |  | 0.0952 |  |  | 0.0618 | 0.069 | 0.0847 |  | 0.0879 | 0.0601 | 

Row | Variant | area with substrate ENLYAQS | area with substrate ENLYDQS | area with substrate ENLYEQS | area with substrate ENLYHQS | area with substrate ENLYIQS | area with substrate ENLYMQS | area with substrate ENLYPQS | area with substrate ENLYQQS | area with substrate ENLYRQS | area with substrate ENLYVQS | area with substrate ENLYWQS | area with substrate ENLYYQS | area with substrate ENLYKQS | area with substrate ENLYNQS | area with substrate ENLYSQS | area with substrate ENLYTQS | area with substrate ENLYCQS | area with substrate ENLYGQS | area with substrate ENLYLQS
18 | H29G |  | 0.0677 | 0.0149 |  | 0.162 |  |  |  | 0.0561 | 0.0858 |  |  |  | 0.0673 | 0.0961 |  | 0.0925 |  | 
19 | Y34H |  |  | 0.053 | 0.0531 |  |  | 0.0896 |  |  |  |  | 0.0684 |  |  | 0.0737 |  | 0.0832 | 0.0768 | 
20 | G35V |  | 0.0294 | 0.0466 |  | 0.0368 | 0.0376 | 0.0308 |  |  | 0.0582 | 0.0428 | 0.0424 | 0.0452 |  | 0.0462 | 0.0551 | 0.0412 |  | 
21 | F38V |  |  | 0.0626 |  |  |  | 0.0978 |  | 0.0536 |  | 0.0707 | 0.0635 |  |  |  |  | 0.0817 | 0.0737 | 
22 | T44M |  | 0.0503 | 0.0621 | 0.0617 | 0.0637 | 0.0567 | 0.0471 | 0.0478 | 0.0919 | 0.0669 |  | 0.0478 | 0.0588 | 0.066 | 0.0258 | 0.0805 | 0.0528 | 0.053 | 0.0649
23 | N45G |  | 0.0671 | 0.0604 | 0.0613 | 0.0587 | 0.0568 | 0.0613 |  | 0.0761 |  | 0.0709 | 0.083 | 0.0396 | 0.0596 |  | 0.0681 | 0.0698 | 0.0616 | 0.0686
24 | V67G |  | 0.0451 | 0.0577 | 0.0498 | 0.0479 | 0.0575 | 0.056 |  | 0.046 | 0.0706 | 0.0758 |  | 0.0552 | 0.0485 | 0.0692 |  | 0.102 |  | 
25 | D69F |  | 0.0655 |  |  |  | 0.0616 | 0.0635 | 0.0465 |  |  |  | 0.0753 |  | 0.0565 |  |  | 0.0717 |  | 
26 | V78N |  |  | 0.0597 | 0.0525 |  | 0.0724 |  |  | 0.0462 | 0.0462 | 0.0638 | 0.0589 | 0.0773 | 0.0593 |  |  | 0.0425 |  | 0.0577
27 | D79E |  |  | 0.0503 |  |  |  | 0.0547 |  |  | 0.107 |  |  | 0.0657 |  | 0.0685 |  | 0.0742 | 0.0663 | 
28 | D82M |  | 0.0476 | 0.0579 | 0.0723 |  | 0.0501 | 0.0617 | 0.0528 |  | 0.0413 | 0.0505 |  |  | 0.0557 |  |  | 0.0389 |  | 0.0509
29 | R87V |  | 0.0837 | 0.0641 |  |  |  | 0.0677 | 0.0625 |  | 0.0751 | 0.0748 |  |  |  | 0.0614 |  | 0.0872 | 0.0608 | 
30 | D91S |  |  |  |  | 0.179 | 0.0719 | 0.0679 | 0.0304 | 0.0629 |  | 0.0608 | 0.0896 | 0.076 | 0.0611 | 0.0769 |  | 0.0758 |  | 
31 | P93D |  |  | 0.0662 | 0.0654 | 0.109 | 0.0698 | 0.0622 |  | 0.0629 |  |  | 0.0566 | 0.0581 | 0.0713 |  |  | 0.103 | 0.0466 | 
32 | P93K |  |  |  | 0.054 |  |  | 0.0527 |  |  | 0.0676 |  |  |  |  | 0.0907 | 0.0583 | 0.0666 |  | 
33 | F101I |  | 0.0899 |  |  | 0.0847 |  | 0.0592 |  |  |  | 0.0499 | 0.0602 |  | 0.0726 | 0.0497 |  | 0.0655 |  | 
